According to PMC4336329 (PLoS ONE, 2015):
Among all 310,000 compounds or so, about 2,200 (0.71%) showed an effect of 50% or more. The effect is printed as a negative number. Some of the results follow.

The molecules below were run against human ether-à-go-go-related gene (hERG) potassium channel (human, UniProt Q12809) (assay: primary screen, population patch clamp on CHO cells stably expressing hERG).
human ether-à-go-go-related gene (hERG) potassium channel, sequence (Q12809 whole entry, looked up): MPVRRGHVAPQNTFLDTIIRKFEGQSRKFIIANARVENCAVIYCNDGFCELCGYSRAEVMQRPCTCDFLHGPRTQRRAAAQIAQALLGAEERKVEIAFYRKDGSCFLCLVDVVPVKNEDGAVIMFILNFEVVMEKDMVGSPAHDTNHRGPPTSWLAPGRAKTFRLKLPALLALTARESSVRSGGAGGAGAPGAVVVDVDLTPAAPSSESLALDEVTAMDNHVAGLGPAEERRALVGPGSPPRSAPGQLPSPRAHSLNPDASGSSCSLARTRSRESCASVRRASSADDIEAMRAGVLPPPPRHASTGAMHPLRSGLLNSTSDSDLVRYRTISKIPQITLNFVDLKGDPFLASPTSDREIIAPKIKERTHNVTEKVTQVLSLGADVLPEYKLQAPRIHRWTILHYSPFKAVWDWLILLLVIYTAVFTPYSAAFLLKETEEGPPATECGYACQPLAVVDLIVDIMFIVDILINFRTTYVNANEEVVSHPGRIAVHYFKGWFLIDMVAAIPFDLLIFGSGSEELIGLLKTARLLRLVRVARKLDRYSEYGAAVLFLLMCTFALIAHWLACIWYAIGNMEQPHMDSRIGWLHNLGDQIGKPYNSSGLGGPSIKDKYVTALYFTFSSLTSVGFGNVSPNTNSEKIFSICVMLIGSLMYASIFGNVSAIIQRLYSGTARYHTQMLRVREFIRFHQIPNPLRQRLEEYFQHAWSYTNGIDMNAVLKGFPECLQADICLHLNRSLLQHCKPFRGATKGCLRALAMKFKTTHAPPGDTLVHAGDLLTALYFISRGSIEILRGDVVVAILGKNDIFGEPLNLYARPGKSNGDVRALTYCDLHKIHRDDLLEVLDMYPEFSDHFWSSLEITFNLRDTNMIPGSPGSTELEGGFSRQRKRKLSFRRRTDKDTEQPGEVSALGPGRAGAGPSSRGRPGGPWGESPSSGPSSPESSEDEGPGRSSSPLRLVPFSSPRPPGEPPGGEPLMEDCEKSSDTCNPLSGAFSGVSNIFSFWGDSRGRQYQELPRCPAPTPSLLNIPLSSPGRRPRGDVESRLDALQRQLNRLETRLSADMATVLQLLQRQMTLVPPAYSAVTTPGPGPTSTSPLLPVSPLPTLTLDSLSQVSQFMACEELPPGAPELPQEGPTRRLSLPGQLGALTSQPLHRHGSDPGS

Structure (SMILES)	hERG current change (%, negative = inhibition) at 1uM
C=C(C)Cn1c(CCCNC(=O)CCC)nc2ccccc21	8.54%
Cc1cccc(C)c1OCC(=O)N1CCc2ccccc2C1	14.2%
Br.COc1ccccc1N1Cc2ccccc2C1	-5.51%
COc1ccc(C(=O)Nc2cc3c4c(c2)CC(=O)N4CCC3)c(OC)c1	4.94%
CCCCNc1nc2c(-c3ccccc3)nnn2c2ccccc12	17.8%
CC(=O)c1sc(NC(=O)c2ccc3c(c2)OCO3)nc1C	1.49%
CCn1nnc(NC(=O)c2ccccc2Br)n1	24%
COc1ccc(Cn2c(-c3ccco3)nc3oc4ccccc4c(=O)c3c2=O)cc1	0.85%
CCC1CCCCN1S(=O)(=O)c1ccccc1 (stereo not shown)	3.47%
Cc1ccc(NC(=O)C(C)Sc2nnc(-c3cccnc3)n2-c2ccccc2)cc1 (stereo not shown)	-86.2%
Cc1ccccc1-c1ccc(=O)n(CC(=O)Nc2ccc(-n3cnnn3)cc2)n1	-1.49%
CCc1ccccc1Nc1nc(-c2cccnc2)cs1	10.5%
COc1ccc(Cl)cc1C(Nc1cccnc1)c1ccc2cccnc2c1O (stereo not shown)	7.36%
CS(=O)(=O)N(Cc1ccccc1Cl)c1ccc(C(=O)NCc2cccnc2)cc1	2.64%
CC1=CC(=Nc2c(C)n(C)n(-c3ccccc3)c2=O)C=CC1=O	-5.17%
Cc1cc(C)n2ncc(/C(N)=N/OC(=O)c3ccccc3F)c2n1	7.6%
CCCc1cc(=O)n2[nH]c(NCc3ccc(OC)cc3)nc2n1	13.1%
CCN(c1ccc(C)cc1C)S(=O)(=O)c1nnc(NC(=O)c2ccco2)s1	10%
Cc1cccn2c(=O)c3cc(C#N)c(=N)n(CCCN4CCOCC4)c3nc12	-78.1%
N#Cc1c(SCC(=O)O)nc(-c2ccccc2)c2c1CCCC2	5.83%
O=C(N/N=C/c1cn(-c2ccccc2)nc1-c1cc2ccccc2o1)c1cccnc1	2.8%
CSc1nc(C)cc(OCCNS(=O)(=O)c2cc(C)ccc2C)n1	10.2%
COc1ccc(/C=C2\SC(=S)N(CCCC(=O)NNC(=O)c3ccccc3O)C2=O)cc1	11.1%

Structure (SMILES)	hERG current change (%, negative = inhibition) at 1uM
COc1cccc(C(=O)Nc2ccc(N3CCN(C(=O)c4ccco4)CC3)cc2)c1	10.1%
CCOC(=O)/C=C/C(=O)N1CCc2ccccc21	7.83%
Cc1cc(C(=O)NCCCc2ccccc2)no1	0.603%
CC(C)C(NC(=O)c1ccc(C(C)(C)C)cc1)C(=O)NCC1(N(C)C)CCCCC1 (stereo not shown)	11.8%
CSc1ccc(S(=O)(=O)NCC(=O)OCC(=O)NCc2cccs2)cc1[N+](=O)[O-]	3.18%
CCc1ccc(OCC(=O)NNC(=O)c2cc(S(=O)(=O)N(C)C)ccc2N2CCCC2)cc1	-9.9%
CC(C)(C)SCCNC(=O)c1ccc(Cl)c([N+](=O)[O-])c1	8.24%
COc1ccc(CCNC(=O)c2cc3c(=O)n4ccccc4nc3n(CC3CCCO3)c2=N)cc1OC (stereo not shown)	-90.3%
Cc1ccc(NC(=O)N2N=C(c3ccc(F)cc3)CC2c2ccc(F)cc2)cc1 (stereo not shown)	1.33%
Br.O=S(=O)(c1ccc(C2=CSC3=NCCN23)cc1)N1CCOCC1	4.74%
O=c1c(C(c2ccc(O)cc2)c2c(O)nc3n(c2=O)CCCS3)c(O)nc2n1CCCS2	-4.62%
CN(C)CCN(C(=O)C1=COCCO1)c1nc2ccc(Cl)cc2s1.Cl	-62.4%
O=C(Nc1cccc(-c2cccc(Cl)c2)c1)C1CCN(Cc2ccon2)CC1	-5.08%
CCc1noc(C)c1C(=O)Nc1ccc(Cl)c(S(=O)(=O)N2CCCCC2)c1	6.76%
CCCNC(=O)Cc1c(OC)ccc2cc(Br)ccc12	11.5%
CCn1c(C)c(P(=O)(N2CCOCC2)N2CCOCC2)c2ccccc21	3.17%
CCCCN(C)CCn1c(=S)[nH]c2cc(OCC)c(OCC)cc2c1=O	2.17%
CCn1c(SCC(=O)Nc2nc(-c3ccccc3)cs2)nc2c1c(=O)n(C)c(=O)n2C	16%
Cc1cc2c(cc1S(=O)(=O)NCCc1ccc(Cl)cc1)OCC(=O)N2	-13.5%
C=CCn1c(=NC(=O)c2ccco2)sc2cc(C(=O)OC)ccc21	2.92%
CCOC(=O)/C=C1\SCC(=O)N1CC(=O)NC(C)C	16.6%
COC(=O)c1cc2ccsc2n1CC(=O)N(C)C1CCCCC1	11.6%
CCOc1ccc(N(CC(=O)OC)S(=O)(=O)c2c(C)noc2C)cc1	12.9%

Structure (SMILES)	hERG current change (%, negative = inhibition) at 1uM
OC(COc1ccccc1)Cn1cc(Br)cn1 (stereo not shown)	4.49%
COCCNC(=S)N1CCC(C(=O)c2ccc3c(c2)OCCO3)CC1	33.2%
COC(=O)c1c(C)oc(C)c1S(=O)(=O)N1CCOCC1	13.1%
COc1ccc(C2C(C#N)C(C#N)N3CCCN23)cc1 (stereo not shown)	1.84%
COCCN=C1Sc2nc3cc(C)c(C)cc3cc2CN1Cc1cccs1	8.08%
CCOC(=O)/C(C#N)=C\c1ccc(OC)c(OC)c1	6.46%
S=C(Nc1ccccc1)N1CCn2cccc2C1c1cccnc1 (stereo not shown)	0.965%
CC(C)Oc1cccc(C(=O)C2CCCN(Cc3ccc4nonc4c3)C2)c1 (stereo not shown)	3.15%
CSc1nc(Cl)c(Cc2ccc(OC(C)C)cc2)c(N(C)C)n1	6.74%
O=C1NC(c2ccccc2)=C(c2nc3ccccc3s2)C(c2ccc(F)cc2)N1 (stereo not shown)	6.6%
CCOc1ccc(-c2ccc(/C=C3/C(=N)N4C(C)=CSC4=NC3=O)o2)c([N+](=O)[O-])c1	13.4%
O=C(c1ccc2c(=O)n(C3CCCC3)c(=S)[nH]c2c1)N1CCN(C2CCCCC2)CC1	11.7%
CCO/C(C)=C1\N=C(c2ccc(Cl)cc2)OC1=O	3.57%
COc1ccc(S(=O)(=O)N(C)c2c(C)n(C)n(-c3ccccc3)c2=O)cc1OC	8.97%
Cc1nnc(NCc2ccco2)s1	2.51%
CC(C)C(NC(=O)C1CCC(C(C)(C)C)CC1)C(=O)NCCCN1CCCCC1 (stereo not shown)	-1.45%
CC(=O)NC(C)CCc1ccccc1 (stereo not shown)	9.31%
CCOC(=O)c1cc(CO)cc(C(=O)OCC)c1	8.86%
Cc1ccc(/C(N)=N/OC(=O)CCc2ccccc2)cc1	3.03%
Cc1nc(NCc2ccco2)c(C#N)c2c1COC(C)(C)C2	9.93%
Cc1c(C)c(C)c(S(=O)(=O)N2CCNCC2)c(C)c1C.Cl	8.99%
Cn1c(CCC(=O)Nc2ccc(F)cc2)nc2cc(S(=O)(=O)N3CCOCC3)ccc21	-7.81%
Cc1c(C(=O)NCCC2=CCCCC2)sc2ncnc(N3CCCCC3C)c12 (stereo not shown)	11.6%

Structure (SMILES)	hERG current change (%, negative = inhibition) at 1uM
NC(=O)c1ccc(N=Cc2c(O)ccc3ccccc23)cc1	14.1%
Nc1cccc(C(=O)OCC(=O)NC2CCCc3ccccc32)c1 (stereo not shown)	12.3%
COc1ccccc1NC(=O)Cc1nnc(SCC(=O)NC2CCCCC2C)n1C (stereo not shown)	14.7%
COC(=O)c1c(C)[nH]c(C=O)c1-c1ccccc1	13.9%
O=C(O)CCCn1cc(NC(=O)c2ccco2)cn1	16.6%
COc1ccc(CCNS(=O)(=O)c2ccc(S(=O)(=O)N3CCCC3)cc2)cc1OC	6.19%
Brc1cc2c(cc1/C=N/Nc1nc(N3CCCC3)nc(N3CCOCC3)n1)OCO2	-4.8%
COc1ccc(O)c(C(=O)c2cnc3c(c2)c(C)nn3CCO)c1	-0.986%
O=C(NCC1CCN(Cc2ccc(F)cc2)CC1)C1CCCN(c2ncnc3c2nc2n3CCCCC2)C1 (stereo not shown)	5.39%
CCCC(C)NC(C)C(=O)NC1CCCC1 (stereo not shown)	13.5%
O=C(c1sc2cc([N+](=O)[O-])ccc2c1Cl)N1CCCCC1	-21.3%
O=C(/C=C/c1ccc(OCCCF)cc1)NCc1ccc(Cl)cc1	11.8%
CSc1c(C#N)c(N)nc2sc(C(=O)c3ccccc3)c(N)c12	10.7%
CCOc1ccc(NC(=O)c2ccc3[nH]c(=O)c(=O)[nH]c3c2)cc1	12.7%
CC(C)(C)C(=O)Nc1nnc(CCc2ccccc2)s1	1.05%
CC(C)Cc1nc(SCC(=O)Nc2nnc(CC(C)C)s2)n[nH]1	-3.92%
COc1cc(CN2CCC(C(=O)NCC(C)(C)CN(C)C)CC2)ccc1OCc1ccccc1.O=C(O)C(=O)O	14.8%
CCOc1ccc(C2=Nn3c(nnc3-c3ccco3)SC2)cc1	-2.23%
Cc1c(Cl)cccc1NC(=S)NN	8.88%
Nc1nnc(SCC(=O)Nc2cc(F)ccc2F)s1	9.97%
N#CCCn1cc(/C=N/NC(=O)c2ccncc2)c(-c2ccc(F)cc2)n1	-12.7%
Nc1n[nH]c(CCCO)n1	11.8%
